Experimental data published in PubChem BioAssay (NCI).
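1) Cells in 96-well plates. 2) Compound, 48 h, 5 concentrations. 3) Linear interpolation between surrounding doses. 4) Unreached endpoint = highest concentration. At the GI50, growth is halved.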 The source holds more than one record for some entries. This is not the full list of results. An entry can have further records. The tests behind the records often covered other concentration ranges, not given here; some values may only mark the edge of a range.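 TGI marks complete inhibition of growth.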

Tests used:
Assay in all cases: NCI-60 cell line screen, 48 h
[1] = system: OVCAR-4 ovarian
[2] = system: CAKI-1 renal
[3] = system: HL-60(TB) leukemia
[4] = system: SK-MEL-5 melanoma
[5] = system: NCI-H460 lung
[6] = system: SN12C renal
[7] = system: T-47D breast
[8] = system: UO-31 renal
[9] = system: LOX IMVI melanoma
[10] = system: OVCAR-5 ovarian
[11] = system: NCI-H23 lung
[12] = system: DLD-1 colon
[13] = system: HT29 colon
[14] = system: COLO 205 colon
[15] = system: DMS 273 small cell lung
[16] = system: HCT-116 colon
[17] = system: DMS 114 small cell lung
[18] = system: CCRF-CEM leukemia

Row | Compound | TGI [1] | GI50 [2] | TGI [3] | TGI [4] | TGI [5] | TGI [6] | GI50 [7] | TGI [8] | TGI [9] | TGI [10] | TGI [11] | TGI [12] | TGI [13] | TGI [14] | TGI [15] | TGI [16] | TGI [17] | TGI [18]
1 | CC(C)[O-].CC(C)[O-].[O-]c1cccc2cccnc12.[O-]c1cccc2cccnc12.[Ti+4] | 5.74 µM and > 100 µM | 7.17 µM and > 100 µM | 456 nM and 5.51 µM | 5.88 µM and > 100 µM | – | – | – | – | – | – | – | – | – | – | – | – | – | –
2 | CC[C@@]1(OC(=O)CN)C(=O)OCc2c1cc1n(c2=O)Cc2cc3c(N)c4c(cc3nc2-1)OCO4 | – | – | – | – | 11.2 nM and > 100 µM | 265 nM and > 100 µM | 0.196 nM and 18.7 nM | 33.1 nM and > 100 µM | 11.1 nM and 117 nM | 112 nM and > 100 µM | 10.7 nM and 124 nM | – | – | – | – | – | – | –
3 | CCOC(=O)CNC(=O)C(CSC(=O)N(C)O)NC(=O)CCC(N)C(=O)O (centres undefined) | – | – | – | – | – | – | – | – | 1.05 µM and > 2 mM | – | – | 1.12 µM and > 2 mM | 2 µM and > 2 mM | 2 µM and > 2 mM | 1.8 µM and > 2 mM | 2 µM and > 2 mM | 2 µM and > 2 mM | 2 µM and > 2 mM
